The results in this text go back to the supplement of paper PMC11417369.

This is one part of the list.

This assay deals with PfHDP1 homeodomain (GST-tagged). As to the kind of experiment: gcPBM binding intensity (ln(normalized median fluorescence intensity)); higher = stronger DNA binding. In a few lines:
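Binding of GST-tagged P. falciparum DNA-binding domains, expressed in E. coli and used at about 25 μg on average, was carried out for 1 h in 1× PBS containing 1% milk, 0.2 mg/ml BSA, 0.5% salmon testes DNA and 0.03% Triton X-100. The target was an Agilent 4 × 180k array of primer-extended double-stranded 36-bp intergenic genomic probes plus negative controls, read with Alexa488 anti-GST antibody at 488 nm. Binding intensity is the highest Masliner-normalised natural-log median intensity across replicate spots of either probe orientation.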
Take “TTTTGAGAATATATGGGTACAAATAAATAAAAATAT [XGTACX_site1933]”: the “gcPBM binding intensity (ln)” value was determined as 7.
The result for “ATATAACATATTAATAATATATTTATAATATGTTTA [GTGCAC_negctrl_site168]” reads 6.32; that for “TTATGTTATATATACACACACAAAAGAAAAAAAAAA [CACACA_site2987]”, 6.48.
The result for “AGGTTAAAAATAAATACACACATTTGATGTCTGTAT [CACACA_site6596]” reads 6.38; that for “AACGCTTATTAGTTGTTGTATATGTGTTCACATATT [CACACA_negctrl_site379]”, 6.24; that for “ATATAAATAAAGAAATATATATATATATATATATAT [GTGCAC_negctrl_site668]”, 9.4.
Regarding “AAAAGGTGGAAAAATGCATGCAGGCTATTCTATATA [TGCATGCA_site1034]”, the “gcPBM binding intensity (ln)” value amounted to 6.36.
With “AATTACATATAATACTGTACGCTAATAAGAAAAAAA [XGTACX_site7413]”, the “gcPBM binding intensity (ln)” value came out at 6.61.
The result for “TTCCACCAATATATATGTACTTATAATATATATATA [XGTACX_site8700]” reads 8.23; that for “AAAAAACACGGACACACACACATATACATACATACA [CACACA_site5470]”, 7.35; that for “ATTTATAGAGCTATATGTACATATATATATATTATT [XGTACX_site3704]”, 6.62.
Consider “AATATAAATAATGTTAAACACACATACCGATATATA [CACACA_site8869]”, for which the “gcPBM binding intensity (ln)” value was found to be 6.7.
Consider “GATCTATTGAGTGATACATGCAGGAAAATTAAAAAC [TGCATGCA_site729]”, for which the “gcPBM binding intensity (ln)” value was 7.02.
For “TTTTTATTATAAGGTCGTACAATTGTAATTATTGTA [XGTACX_site1413]”, the “gcPBM binding intensity (ln)” value worked out at 6.45.
The result for “AAAAAGAAAAAAGAAAGTACAAATATACACATTTTT [XGTACX_site3343]” reads 6.2; that for “TTTTTTTTTTTATGCTCACACATTAATTTTTATACA [CACACA_site4527]”, 8.86.
The result for “TATGTATGTATGTATGTATGCATGTCTAACACCTAA [TGCATGCA_site360]” reads 6.75; that for “ACACATGTATTTGGTGCATGTTGTTAAAAAAATATT [TGCATGCA_site795]”, 9.61; that for “TCATAGCTAGGATAACGTACAGAAAAGTGAAAAATT [XGTACX_site3322]”, 6.78.
In the case of “ATTCTAGTAATATATGTATATTTATATATGTATGTG [XGTACX_negctrl_site419]” it was 6.36.
Take “TTTTTTTTTTGTTGTTGTACTCTTATATTTTTATAT [XGTACX_site6178]”: the “gcPBM binding intensity (ln)” value is 6.72.
The result for “ATATATATGTATATAACATGCAACATTTAATAATAA [TGCATGCA_site1018]” reads 6.79; that for “TTTTTTTTTTTTTTTTAACACACATATATATATTTT [CACACA_site8585]”, 6.42.
The result for “ATAAAAGATTTATACATACACACATATTATATTCAC [CACACA_site3714]” reads 6.53; that for “TTTAATTTATATAATGATATTAAGTTGGTTATTAGG [CACACA_negctrl_site329]”, 6.1; that for “ATATAGTTTCACATGTGTACATAAAAATACACTTGT [XGTACX_site3339]”, 6.59.
The result for “ACAAAAATGAGATGGTGTACGCACAAATAAATAATA [XGTACX_site5221]” reads 7.75; that for “ACATATATATTTATATGTACATATATTTATATATAT [XGTACX_site7469]”, 6.46.
In the case of “AAAAATATTTAAAATACACACATATCTATAATATAT [CACACA_site7032]”, the “gcPBM binding intensity (ln)” value worked out at 6.36.
The result for “GTGGTATAAATTTTATGTACTTAATAACTCATTAAT [XGTACX_site5555]” reads 6.47; that for “AAATCCATATAGGATTGTACATATATTATATATATA [XGTACX_site8818]”, 7.39.
The result for “CAAAATGTTAAAGATACACACCTAACAAACACAAAA [CACACA_site4685]” reads 6.83.
Consider “AATTCTTTACTATTCACACATATAAATATTCACTTT [CACACA_site4886]”, for which the “gcPBM binding intensity (ln)” value amounted to 6.77.
In the case of “AAAAAAAAAAAACACACACACACAAATACATACACA [CACACA_site706]” it was 6.9; in that of “CAATGTATTTAGAATACATGCATATTTTCATAATGT [TGCATGCA_site221]”, 6.24; in that of “AATTATGCACAAATCACACATATAAAATAAAAAGTG [CACACA_site4474]”, 11.1.
The result for “AAATATTTATATGTTACACACTGTTTATAATTTTCT [CACACA_site4868]” reads 6.26; that for “TTAATAATTATAACATGTACATACACTAAATTTTTT [XGTACX_site8953]”, 6.77; that for “CAAATATATATTTATTGTACATATTGTTTATATGGT [XGTACX_site5246]”, 6.94.
In the case of “CTCATCCTTACATACACACACATATATTTATTTATA [CACACA_site6202]” it was 7.51; in that of “AAATTATAGAATCATTGTACTTTTTTTTTTTTTTTT [XGTACX_site1280]”, 6.19; in that of ATAATAACTTGTAAGGTGCATTTTATGTTTTCTTAA, 8.12.
As for “TATGCTTCAAAATTGTGTACATATATAATATATTAT [XGTACX_site6760]”, the “gcPBM binding intensity (ln)” value worked out at 7.01.
The result for “TACTTACCTATAATAACACACAAGAAAAAAATAAAA [CACACA_site6616]” reads 6.76; that for “AAATAATATCATAAATGTACATATATCATATTATTA [XGTACX_site5372]”, 6.29; that for “TATAAAATTATGTGTACACAAATATAACTTTTCTTT [CACACA_site5554]”, 6.49.
The result for “CATCCAAAAATATTATGTACTAAATTTGGATGTATT [XGTACX_site3954]” reads 6.1; that for “AAAATATTTCTTCTTTGTACTTATATATATTTAATT [XGTACX_site5446]”, 6.85; that for “TATTCATATTCCAAGTGTACACATAAATCCCTAATA [XGTACX_site4131]”, 7.05.
Turning to “TTATTTAAACAAATCACACACAAATATAAATACATA [CACACA_site5158]”, the “gcPBM binding intensity (ln)” value worked out at 6.71.
With “AACACCAAACTAAATGTACACACATACATAAATATA [CACACA_site8298]”, the “gcPBM binding intensity (ln)” value amounted to 6.59.
In the case of “AATATAAACACAAACACACACATATATATATATATA [CACACA_site4307]” it was 9.47.
The result for “TTTTAAAACTACATTGGTACACAATAAAAAAAAAAA [XGTACX_site2793]” reads 6.57; that for “TTTTAAAAAAAAAAAATAAATAAATAAGATATTATC [CACACA_negctrl_site1791]”, 6.02; that for “TCATATATATTATACACACACATATATAAATATATA [CACACA_site967]”, 7.11.
Regarding “AAAAAAAAAAAAAAAGCACACATATAAATATGAATA [CACACA_site8391]”, the “gcPBM binding intensity (ln)” value stood at 6.66.
